Our source for the binding signal (RPM ratio (pull-down/input)) values is publication PMC12820563.

The list shows a part of the results. The list includes weakly bound sequences.

This test has as its target T1, MBP-FoxP3dN (UniProt Q99JB6).
T1 sequence: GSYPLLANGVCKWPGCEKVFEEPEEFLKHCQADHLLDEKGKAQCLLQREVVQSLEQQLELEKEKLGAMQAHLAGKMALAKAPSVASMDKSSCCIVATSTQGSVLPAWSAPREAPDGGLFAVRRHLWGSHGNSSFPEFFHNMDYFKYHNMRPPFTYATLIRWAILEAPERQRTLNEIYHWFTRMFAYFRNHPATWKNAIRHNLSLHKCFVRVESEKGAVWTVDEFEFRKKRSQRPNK
As to the kind of experiment: PD-seq (MBP pull-down with sequencing). The conditions noted are these: 20 mM Tris-HCl pH 7.5, 100 mM NaCl, 1.5 mM MgCl2, 0.4 uM protein, 0.1 uM dsDNA library, 30 min, room temperature, amylose pull-down; high values mean tight binding; double strand, one strand shown.
In the case of “GATGATTGTTCTCCCAGCTGATGAATTGCTACCTTCGAGTAAACAAATTTTCCTAATCTTTCTGTTCAAGCGCCATCTAC”, the binding signal (RPM ratio (pull-down/input)) was determined as 0.702.

Take “GATGATTGTTCTCCCAGCTGATGAATTGATCGTTTCGAGTAAACAAATTTTCCTAATCTTTCTGTTCAAGCGCCATCTAC”: the binding signal (RPM ratio (pull-down/input)) stood at 0.653.

For the sequence “GATGATTGTTCTCCCAGCTGATGAATTTGTTTGGTCGAGTAAACAAATTTTCCTAATCTTTCTGTTCAAGCGCCATCTAC”, the binding signal (RPM ratio (pull-down/input)) came to 7.49.

For “GATGATTGTTCTCCCAGCTGATGAATTCCTTTCCTCGAGTAAACAAATTTTCCTAATCTTTCTGTTCAAGCGCCATCTAC”, the binding signal (RPM ratio (pull-down/input)) came to 0.29.

In the case of “GATGATTGTTCTCCCAGCTGATGAATTGACGTTTTCGAGTAAACAAATTTTCCTAATCTTTCTGTTCAAGCGCCATCTAC”, the binding signal (RPM ratio (pull-down/input)) was 0.643.

Turning to “GATGATTGTTCTCCCAGCTGATGAATTTCAACTATCGAGTAAACAAATTTTCCTAATCTTTCTGTTCAAGCGCCATCTAC”, the binding signal (RPM ratio (pull-down/input)) is 0.519.

For “GATGATTGTTCTCCCAGCTGATGAATTTACCGACTCGAGTAAACAAATTTTCCTAATCTTTCTGTTCAAGCGCCATCTAC”, the binding signal (RPM ratio (pull-down/input)) was determined as 0.395.

On to “GATGATTGTTCTCCCAGCTGATGAATTATCCCTATCGAGTAAACAAATTTTCCTAATCTTTCTGTTCAAGCGCCATCTAC”, for which the binding signal (RPM ratio (pull-down/input)) was found to be 0.338.

As for “GATGATTGTTCTCCCAGCTGATGAATTTATGCACTCGAGTAAACAAATTTTCCTAATCTTTCTGTTCAAGCGCCATCTAC”, the binding signal (RPM ratio (pull-down/input)) came out at 1.69.

As to “GATGATTGTTCTCCCAGCTGATGAATTACAAATATCGAGTAAACAAATTTTCCTAATCTTTCTGTTCAAGCGCCATCTAC”, the binding signal (RPM ratio (pull-down/input)) came to 1.43.

Consider “GATGATTGTTCTCCCAGCTGATGAATTTCCCGTATCGAGTAAACAAATTTTCCTAATCTTTCTGTTCAAGCGCCATCTAC”, for which the binding signal (RPM ratio (pull-down/input)) is 0.366.

Take “GATGATTGTTCTCCCAGCTGATGAATTATTAGCGTCGAGTAAACAAATTTTCCTAATCTTTCTGTTCAAGCGCCATCTAC”: the binding signal (RPM ratio (pull-down/input)) was 0.786.

“GATGATTGTTCTCCCAGCTGATGAATTGTGATGTTCGAGTAAACAAATTTTCCTAATCTTTCTGTTCAAGCGCCATCTAC”: the binding signal (RPM ratio (pull-down/input)) was 4.21.

Consider “GATGATTGTTCTCCCAGCTGATGAATTAGGATATTCGAGTAAACAAATTTTCCTAATCTTTCTGTTCAAGCGCCATCTAC”, for which the binding signal (RPM ratio (pull-down/input)) was determined as 0.717.

On to “GATGATTGTTCTCCCAGCTGATGAATTACTCAATTCGAGTAAACAAATTTTCCTAATCTTTCTGTTCAAGCGCCATCTAC”, for which the binding signal (RPM ratio (pull-down/input)) came out at 0.357.

Take “GATGATTGTTCTCCCAGCTGATGAATTGATCCGATCGAGTAAACAAATTTTCCTAATCTTTCTGTTCAAGCGCCATCTAC”: the binding signal (RPM ratio (pull-down/input)) was determined as 0.203.

Consider “GATGATTGTTCTCCCAGCTGATGAATTTTTACCGTCGAGTAAACAAATTTTCCTAATCTTTCTGTTCAAGCGCCATCTAC”, for which the binding signal (RPM ratio (pull-down/input)) was determined as 0.214.

As for “GATGATTGTTCTCCCAGCTGATGAATTAGGATCATCGAGTAAACAAATTTTCCTAATCTTTCTGTTCAAGCGCCATCTAC”, the binding signal (RPM ratio (pull-down/input)) amounted to 0.453.

Regarding “GATGATTGTTCTCCCAGCTGATGAATTGCATTCTTCGAGTAAACAAATTTTCCTAATCTTTCTGTTCAAGCGCCATCTAC”, the binding signal (RPM ratio (pull-down/input)) was 4.62.

On to “GATGATTGTTCTCCCAGCTGATGAATTTCGAACTTCGAGTAAACAAATTTTCCTAATCTTTCTGTTCAAGCGCCATCTAC”, for which the binding signal (RPM ratio (pull-down/input)) is 0.301.

In the case of “GATGATTGTTCTCCCAGCTGATGAATTCAACTCCTCGAGTAAACAAATTTTCCTAATCTTTCTGTTCAAGCGCCATCTAC”, the binding signal (RPM ratio (pull-down/input)) came out at 0.287.

Turning to “GATGATTGTTCTCCCAGCTGATGAATTTTTTACCTCGAGTAAACAAATTTTCCTAATCTTTCTGTTCAAGCGCCATCTAC”, the binding signal (RPM ratio (pull-down/input)) was 0.228.

“GATGATTGTTCTCCCAGCTGATGAATTTATAGGTTCGAGTAAACAAATTTTCCTAATCTTTCTGTTCAAGCGCCATCTAC”: the binding signal (RPM ratio (pull-down/input)) is 0.956.

“GATGATTGTTCTCCCAGCTGATGAATTGAAAATATCGAGTAAACAAATTTTCCTAATCTTTCTGTTCAAGCGCCATCTAC”: the binding signal (RPM ratio (pull-down/input)) was 0.506.

Turning to “GATGATTGTTCTCCCAGCTGATGAATTATCCATCTCGAGTAAACAAATTTTCCTAATCTTTCTGTTCAAGCGCCATCTAC”, the binding signal (RPM ratio (pull-down/input)) was found to be 0.37.

For “GATGATTGTTCTCCCAGCTGATGAATTCCTCGTCTCGAGTAAACAAATTTTCCTAATCTTTCTGTTCAAGCGCCATCTAC”, the binding signal (RPM ratio (pull-down/input)) was 0.283.

Turning to “GATGATTGTTCTCCCAGCTGATGAATTCCGACGGTCGAGTAAACAAATTTTCCTAATCTTTCTGTTCAAGCGCCATCTAC”, the binding signal (RPM ratio (pull-down/input)) worked out at 0.238.

In the case of “GATGATTGTTCTCCCAGCTGATGAATTAATCCCATCGAGTAAACAAATTTTCCTAATCTTTCTGTTCAAGCGCCATCTAC”, the binding signal (RPM ratio (pull-down/input)) was 0.282.

For the sequence “GATGATTGTTCTCCCAGCTGATGAATTGTCTGCATCGAGTAAACAAATTTTCCTAATCTTTCTGTTCAAGCGCCATCTAC”, the binding signal (RPM ratio (pull-down/input)) was determined as 1.06.

For the sequence “GATGATTGTTCTCCCAGCTGATGAATTGAGTGTATCGAGTAAACAAATTTTCCTAATCTTTCTGTTCAAGCGCCATCTAC”, the binding signal (RPM ratio (pull-down/input)) came to 1.89.

With “GATGATTGTTCTCCCAGCTGATGAATTCGCCGGTTCGAGTAAACAAATTTTCCTAATCTTTCTGTTCAAGCGCCATCTAC”, the binding signal (RPM ratio (pull-down/input)) amounted to 0.297.
